The values below come from the supplement of paper PMC4604168 (melanoma cell lines).

SMILES strings stand for the structures. The list shows a part of the results. Single values are uncertain, as repeats are few or missing.
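Note: cells treated in 1,536-well plates, then fixed and DAPI-stained, with nuclei counted from automated high-throughput microscope images.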

This assay relates to WM451Lu. The assay is described as follows: cell count relative to DMSO control; melanoma cells; higher = more viable cells. As to conditions: library dose: standard library concentration; 72 h.
Turning to `NC(=O)c1ccc(N(C(N)=O)c2c(F)cccc2F)nc1-c1ccc(F)cc1F` + OCCn1cc(-c2cnc3nnn(Cc4ccc5ncccc5c4)c3n2)cn1 [PF04217903] (first compound 2 µM, partner dose 5 µM), the cell count was found to be 87.8%.
In the case of `NC(=O)c1ccc(N(C(N)=O)c2c(F)cccc2F)nc1-c1ccc(F)cc1F` + NCC(=O)Nc1ccc(-n2nc(C(F)(F)F)cc2-c2ccc3c(ccc4ccccc43)c2)cc1 [OSU03012] (first compound 2 µM, partner dose 5 µM) it was 84.4%; in that of `CCCCCCCCc1ccc(CCC(N)(CO)CO)cc1` [fingolimod] + O=C(O)c1ccc(-c2c[nH]c3ncc(-c4ccccc4)cc23)cc1C1CCCC1 [GSK650394] (first compound 10 µM, partner dose 0.8 µM), 11.7%; in that of `CCCCCCCCc1ccc(CCC(N)(CO)CO)cc1` [fingolimod] + OCCn1cc(-c2cnc3nnn(Cc4ccc5ncccc5c4)c3n2)cn1 [PF04217903] (first compound 10 µM, partner dose 5 µM), 16.8%.
With `CCCCCCCCc1ccc(CCC(N)(CO)CO)cc1` [fingolimod] + Cc1ccc(NC(=O)c2cccc(N(C)C)c2)cc1NC(=O)c1ccc(O)cc1 [ZM336372] (first compound 10 µM, partner dose 10 µM) the figure was 16.7%; with `CCCCCCCCc1ccc(CCC(N)(CO)CO)cc1` [fingolimod] + Cc1cc(N2CCOCC2)cc2[nH]c(-c3c(NC[C@@H](O)c4cccc(Cl)c4)cc[nH]c3=O)nc12 [BMS536924] (first compound 10 µM, partner dose 1 µM), 19.4%; with `CCCCCCCCc1ccc(CCC(N)(CO)CO)cc1` [fingolimod] + COc1cc(Nc2ncc(F)c(Nc3ccc4c(n3)NC(=O)C(C)(C)O4)n2)cc(OC)c1OC [Tamatinib] (first compound 10 µM, partner dose 2 µM), 23%.
In turn, `CCCCCCCCc1ccc(CCC(N)(CO)CO)cc1` [fingolimod] + NCC(=O)Nc1ccc(-n2nc(C(F)(F)F)cc2-c2ccc3c(ccc4ccccc43)c2)cc1 [OSU03012] (first compound 10 µM, partner dose 5 µM) had a cell count of 7.86%.
As for `CC(C)(C)c1cnc(CSc2cnc(NC(=O)C3CCNCC3)s2)o1` + Cn1cncc1[C@@](N)(c1ccc(Cl)cc1)c1ccc2c(c1)c(-c1cccc(Cl)c1)cc(=O)n2C [tipifarnib] (first compound 0.05 µM, partner dose 0.05 µM), the cell count came to 59.2%.
With `CCCCCCCCc1ccc(CCC(N)(CO)CO)cc1` [fingolimod] + Cn1cncc1[C@@](N)(c1ccc(Cl)cc1)c1ccc2c(c1)c(-c1cccc(Cl)c1)cc(=O)n2C [tipifarnib] (first compound 10 µM, partner dose 0.05 µM) the figure was 6.64%; with `Cc1ccc(NC(=O)c2cccc(N(C)C)c2)cc1NC(=O)c1ccc(O)cc1` + CC(C)(C)c1cnc(CSc2cnc(NC(=O)C3CCNCC3)s2)o1 [SNS-032] (first compound 10 µM, partner dose 0.05 µM), 75.6%; with `CCCCCCCCc1ccc(CCC(N)(CO)CO)cc1` [fingolimod] + CC1(C)NC(=O)N(c2ccc([N+](=O)[O-])c(C(F)(F)F)c2)C1=O [nilutamide] (first compound 10 µM, partner dose 5 µM), 19.6%.
`NC(=O)c1ccc(N(C(N)=O)c2c(F)cccc2F)nc1-c1ccc(F)cc1F` + COc1cc(Nc2ncc(F)c(Nc3ccc4c(n3)NC(=O)C(C)(C)O4)n2)cc(OC)c1OC [Tamatinib] (first compound 2 µM, partner dose 2 µM) registered a cell count of 71.6%.
Regarding `Cc1ccc(NC(=O)c2cccc(N(C)C)c2)cc1NC(=O)c1ccc(O)cc1` + C[C@@H]1CCN(C(=O)CC#N)C[C@@H]1N(C)c1ncnc2[nH]ccc12 [CP690550] (first compound 10 µM, partner dose 5 µM), the cell count is 104%.
With `CC(C)(C)c1cnc(CSc2cnc(NC(=O)C3CCNCC3)s2)o1` + OCCn1cc(-c2cnc3nnn(Cc4ccc5ncccc5c4)c3n2)cn1 [PF04217903] (first compound 0.05 µM, partner dose 5 µM) the figure was 65%.
With `CCCCCCCCc1ccc(CCC(N)(CO)CO)cc1` [fingolimod] + CN(NC(=O)CC(=O)NN(C)C(=S)c1ccccc1)C(=S)c1ccccc1 [STA4783] (first compound 10 µM, partner dose 0.03 µM) the figure was 8.55%.
With `Cc1ccc(NC(=O)c2cccc(N(C)C)c2)cc1NC(=O)c1ccc(O)cc1` + CN(NC(=O)CC(=O)NN(C)C(=S)c1ccccc1)C(=S)c1ccccc1 [STA4783] (first compound 10 µM, partner dose 0.03 µM) the figure was 70.5%; with `CCCCCCCCc1ccc(CCC(N)(CO)CO)cc1` [fingolimod] + O=C(Nc1cccc(Cl)c1)Nc1ncc(CCNc2ncnc3ccsc23)s1 [SNS314] (first compound 10 µM, partner dose 0.004 µM), 17.6%; with `Cc1ccc(NC(=O)c2cccc(N(C)C)c2)cc1NC(=O)c1ccc(O)cc1` + Cc1cc(N2CCOCC2)cc2[nH]c(-c3c(NC[C@@H](O)c4cccc(Cl)c4)cc[nH]c3=O)nc12 [BMS536924] (first compound 10 µM, partner dose 1 µM), 77.4%.
On to `NC(=O)c1ccc(N(C(N)=O)c2c(F)cccc2F)nc1-c1ccc(F)cc1F` + CC1(C)NC(=O)N(c2ccc([N+](=O)[O-])c(C(F)(F)F)c2)C1=O [nilutamide] (first compound 2 µM, partner dose 5 µM), for which the cell count was found to be 99.9%.
With `NC(=O)c1ccc(N(C(N)=O)c2c(F)cccc2F)nc1-c1ccc(F)cc1F` + CN(C)S(=O)(=O)c1ccc2c(c1)/C(=C/c1cc3c([nH]1)CCCC3)C(=O)N2 [SU6656] (first compound 2 µM, partner dose 2 µM) the figure was 70.5%; with `NC(=O)c1ccc(N(C(N)=O)c2c(F)cccc2F)nc1-c1ccc(F)cc1F` + COc1cc2c(Oc3ccc4[nH]c(C)cc4c3F)ncnc2cc1OCCCN1CCCC1 [cediranib] (first compound 2 µM, partner dose 2 µM), 96.1%; with `CN(NC(=O)CC(=O)NN(C)C(=S)c1ccccc1)C(=S)c1ccccc1` + COc1cc2c(Oc3ccc4[nH]c(C)cc4c3F)ncnc2cc1OCCCN1CCCC1 [cediranib] (first compound 0.03 µM, partner dose 2 µM), 88.5%.
Regarding `CCCCCCCCc1ccc(CCC(N)(CO)CO)cc1` [fingolimod] + CC(C)(C)c1cnc(CSc2cnc(NC(=O)C3CCNCC3)s2)o1 [SNS-032] (first compound 10 µM, partner dose 0.05 µM), the cell count was 11.1%.
With `NC(=O)c1ccc(N(C(N)=O)c2c(F)cccc2F)nc1-c1ccc(F)cc1F` + C=CCn1c(=O)c2cnc(Nc3ccc(N4CCN(C)CC4)cc3)nc2n1-c1cccc(C(C)(C)O)n1 [MK1775] (first compound 2 µM, partner dose 0.1 µM) the figure was 81.3%.
With `Cc1ccc(NC(=O)c2cccc(N(C)C)c2)cc1NC(=O)c1ccc(O)cc1` + OCCn1cc(-c2cnc3nnn(Cc4ccc5ncccc5c4)c3n2)cn1 [PF04217903] (first compound 10 µM, partner dose 5 µM) the figure was 104%; with `CCCCCCCCc1ccc(CCC(N)(CO)CO)cc1` [fingolimod] + CN(C)S(=O)(=O)c1ccc2c(c1)/C(=C/c1cc3c([nH]1)CCCC3)C(=O)N2 [SU6656] (first compound 10 µM, partner dose 2 µM), 13.9%; with `NC(=O)c1ccc(N(C(N)=O)c2c(F)cccc2F)nc1-c1ccc(F)cc1F` + NC(=O)Nc1cc(-c2cccc(F)c2)sc1C(=O)N[C@H]1CCCNC1 [AZD7762] (first compound 2 µM, partner dose 0.1 µM), 62.8%.
`Cc1ccc(NC(=O)c2cccc(N(C)C)c2)cc1NC(=O)c1ccc(O)cc1` + O=C(O)c1ccc(-c2c[nH]c3ncc(-c4ccccc4)cc23)cc1C1CCCC1 [GSK650394] (first compound 10 µM, partner dose 0.8 µM) returned a cell count of 106%.
With `NC(=O)c1ccc(N(C(N)=O)c2c(F)cccc2F)nc1-c1ccc(F)cc1F` + Cc1cc(N2CCOCC2)cc2[nH]c(-c3c(NC[C@@H](O)c4cccc(Cl)c4)cc[nH]c3=O)nc12 [BMS536924] (first compound 2 µM, partner dose 1 µM) the figure was 89.4%.
With `Cc1ccc(NC(=O)c2cccc(N(C)C)c2)cc1NC(=O)c1ccc(O)cc1` + CO[C@@H]1[C@H](N(C)C(=O)c2ccccc2)C[C@H]2O[C@]1(C)n1c3ccccc3c3c4c(c5c6ccccc6n2c5c31)C(=O)NC4 [Midostaurin] (first compound 10 µM, partner dose 0.4 µM) the figure was 86.9%; with `CC(C)(C)c1cnc(CSc2cnc(NC(=O)C3CCNCC3)s2)o1` + O=C(O)c1ccc(-c2c[nH]c3ncc(-c4ccccc4)cc23)cc1C1CCCC1 [GSK650394] (first compound 0.05 µM, partner dose 0.8 µM), 79.5%.
With `CC(C)(C)c1cnc(CSc2cnc(NC(=O)C3CCNCC3)s2)o1` + CN(C)S(=O)(=O)c1ccc2c(c1)/C(=C/c1cc3c([nH]1)CCCC3)C(=O)N2 [SU6656] (first compound 0.05 µM, partner dose 2 µM) the figure was 39.7%; with `NC(=O)c1ccc(N(C(N)=O)c2c(F)cccc2F)nc1-c1ccc(F)cc1F` + O=C(O)c1ccc(-c2c[nH]c3ncc(-c4ccccc4)cc23)cc1C1CCCC1 [GSK650394] (first compound 2 µM, partner dose 0.8 µM), 96.1%.
